72 molecules from the supplement of paper PMC8183993 can be followed below.

Several values for one entry are separate records, joined by “and”; a condition that tells them apart may be missing. Equal values may be shown once. Where a name gives a salt, the structure may show the parent alone. ± gives the standard deviation of the averaged measurements. Over roughly 3,200 compounds, “nuclei count (viability) relative to DMSO” has its median near 99; the lowest 2% begin near 16. The list shows a part of the results.

For the test, the system named is U2OS. Description: nuclei count (viability) relative to DMSO (% of DMSO); higher = more viable cells. Conditions: 10 µM; 24 h. The protocol:
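Primary image-based screen in U2OS cells: compounds at 10 uM for 24 h, then a 1 h o-propargyl-puromycin (OPP) pulse, click labelling, and high-throughput microscopy. Mean cytoplasmic OPP intensity and nuclei count were normalised to DMSO wells within each plate (DMSO = 100) and averaged over triplicate plates.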
Consider `O=C(OCC(O)CO)c1ccccc1Nc1ccnc2cc(Cl)ccc12` (configuration not stated) [Glafenine hydrochloride], for which the nuclei count stood at 87.5. With `Cc1cc(O)c2c(c1)C(=O)c1cccc(O)c1C2=O` [Chrysophanic acid (Chrysophanol)] the figure was 92.5 ± 11; with `NC(=O)c1cn(Cc2c(F)cccc2F)nn1` [Rufinamide (Banzel)], 94.8. As to `COc1cc2c(N3CCN(C(=O)Nc4ccc(OC(C)C)cc4)CC3)ncnc2cc1OCCCN1CCCCC1` [Tandutinib (MLN518)], the nuclei count came out at 93.9. In turn, `CC(C(=O)O)c1ccc(-c2ccccc2)c(F)c1` (configuration not stated) [Flurbiprofen (Ansaid)] registered a nuclei count of 102. With `CC(C(=O)O)c1ccc(-c2ccccc2)c(F)c1` (configuration not stated) [Flurbiprofen], the nuclei count was 88.2 ± 9.6. The molecule `COc1cc(N)c(Cl)cc1C(=O)OCCCN1CCCCC1` yielded a nuclei count of 96.6. Molecule `COc1ccc(CCN(C)CCCN2CCc3cc(OC)c(OC)cc3CC2=O)cc1OC` [Zatebradine hydrochloride] returned a nuclei count of 97.4. `O=c1ccc2cc(O)c(O)cc2o1` [Esculetin]: the nuclei count was 101.

Molecule `C[C@H](CCC(=O)O)[C@H]1CC[C@H]2[C@@H]3[C@H](O)C[C@@H]4C[C@H](O)CC[C@]4(C)[C@H]3C[C@H](O)[C@]12C` [Cholic acid] showed a nuclei count of 105. Molecule `COc1cc(C(=O)NC(=S)Nc2cccc(NC(=O)c3ccccc3)c2)cc(OC)c1OC` displayed a nuclei count of 101. The value for `COc1cc([S+](C)[O-])ccc1-c1nc2cccnc2[nH]1` (configuration not stated) [Sulmazole] was 103; that for `NC(N)=NC(N)=Nc1cccc(Cl)c1` [m-Chlorophenylbiguanide hydrochloride] was 97.9. Regarding `C[C@H]1O[C@@H](O[C@H]2[C@@H](O)C[C@H](O[C@H]3[C@@H](O)C[C@H](O[C@H]4CC[C@@]5(C)[C@H](CC[C@@H]6[C@@H]5C[C@@H](O)[C@]5(C)[C@@H](C7=CC(=O)OC7)CC[C@]65O)C4)O[C@@H]3C)O[C@@H]2C)C[C@H](O)[C@@H]1O` [Digoxin], the nuclei count amounted to 14.3.

For `C[C@]12CCC(=O)C=C1CC[C@@H]1[C@@H]2[C@@H](O)C[C@@]2(C)[C@H]1CC[C@]2(O)C(=O)CO` [Hydrocortisone (Cortisol)], the nuclei count was determined as 104. `C[C@]12CCC(=O)C=C1CC[C@@H]1[C@@H]2[C@@H](O)C[C@@]2(C)[C@H]1CC[C@]2(O)C(=O)CO` [Hydrocortisone base] gave a nuclei count of 108. For `CCCCCCC[N+](CC)(CC)CCCCc1ccc(Cl)cc1` [Clofilium tosylate], the nuclei count came out at 99.8.

Consider `CCOC(=O)C1=C[C@@H](OC(CC)CC)[C@H](NC(C)=O)[C@@H](N)C1` [Oseltamivir phosphate (Tamiflu)], for which the nuclei count was 81. Molecule `CNCCCC1c2ccccc2C=Cc2ccccc21` [Protriptyline hydrochloride] returned a nuclei count of 102. As for `C=C[C@]1(C)C[C@@H](OC(=O)CS[C@@H]2C[C@H]3CC[C@@H](C2)N3C)[C@]2(C)[C@H](C)CC[C@]3(CCC(=O)[C@H]32)[C@@H](C)[C@@H]1O` [Retapamulin], the nuclei count turned out to be 99.4. `Oc1ncnc2[nH]ncc12` [Allopurinol] returned a nuclei count of 103. For `Oc1ncnc2[nH]ncc12` [Allopurinol (Zyloprim)], the nuclei count came to 108. The molecule `CC(=O)N(O)[C@@H]1c2cc(C#N)ccc2OC(C)(C)[C@H]1O` showed a nuclei count of 92.8.

Consider `COc1ccccc1C(=O)Nc1cc2c(cc1N1CCCC1)n(C)c(=O)n2C`, for which the nuclei count was 95.2. The value for `O=C(CCc1ccc(O)cc1)c1c(O)cc(O)cc1O[C@@H]1O[C@H](CO)[C@@H](O)[C@H](O)[C@H]1O` [Phlorizin (Phloridzin)] was 82.5; that for `COc1ccc(OC)c2c(=S)c3ccccc3[nH]c12` was 74.2; that for `Cc1sc(N)c(C(=O)c2cccc(C(F)(F)F)c2)c1C` was 107. Molecule `c1ccc2c(Cc3c[nH]c4ccccc34)c[nH]c2c1` [Diindolylmethane] gave a nuclei count of 84.3. For the molecule `CCC(=O)N1CCN(c2ccc(-n3c(=O)ccc4cnc5ccc(-c6cnc7ccccc7c6)cc5c43)cc2C(F)(F)F)CC1` [Torin 1], the nuclei count was determined as 80.4. In turn, `CO/N=C(\C(=O)N[C@@H]1C(=O)N2C(C(=O)OCOC(=O)C(C)(C)C)=C(/C=C\c3scnc3C)CS[C@H]12)c1csc(N)n1` [Cefditoren pivoxil] displayed a nuclei count of 94.5. Molecule `COc1ccc(-n2[nH]c3c4c(ncc3c2=O)CCCCC4)cc1` showed a nuclei count of 99.9. The value for `C[N+]1(CCCCC[N+]2(C)CCCC2)CCCC1` [Pentolinium bitartrate] was 109; that for `C=C1C(=O)O[C@@H]2/C=C(\C)CC/C=C(\C)CC[C@@H]12` [Costunolide] was 73 ± 23. Take `O=C(Nc1ccccc1)c1cc([N+](=O)[O-])ccc1Cl`: the nuclei count was 91.9 and 96.1. `COc1ccc(CCN(C)CCCC(C#N)(c2ccc(OC)c(OC)c2)C(C)C)cc1OC` (configuration not stated) [Verapamil hydrochloride] yielded a nuclei count of 105. As for `Cc1onc(-c2ccccc2)c1-c1ccc(S(N)(=O)=O)cc1` [Valdecoxib], the nuclei count is 101. Regarding `CCCc1cc(=O)[nH]c(=S)[nH]1` [Propylthiouracil], the nuclei count was 104. The molecule `O=C(O)c1cc(O)c2c(c1)C(=O)c1cccc(O)c1C2=O` [Rhein (Monorhein)] displayed a nuclei count of 104. The molecule `Cc1ccc(Nc2c(F)cccc2Cl)c(CC(=O)O)c1` [Lumiracoxib (COX-189)] gave a nuclei count of 103. Take `O=c1cc(-c2cccc3c2Sc2ccccc2S3)oc(N2CCOCC2)c1`: the nuclei count is 84.9 and 97.4. Turning to `Oc1ccc([C@H]2COc3cc(O)ccc3C2)cc1` [Equol], the nuclei count was 100. In turn, `Fc1ccc(C(c2ccc(F)cc2)N2CCN(C/C=C/c3ccccc3)CC2)cc1` [Flunarizine dihydrochloride] showed a nuclei count of 100 ± 3.

`N=C(N)c1ccc(OCCCCCOc2ccc(C(=N)N)cc2)cc1` [Pentamidine isethionate] came in with a nuclei count of 94.9.

For `N=C(N)c1ccc(OCCCCCOc2ccc(C(=N)N)cc2)cc1` [Pentamidine], the nuclei count is 102. `N=C(N)SCCc1ccc(OCc2ccc([N+](=O)[O-])cc2)cc1` [KB-R7943 mesylate] gave a nuclei count of 96.4. As to `CCCCC(=O)O[C@H]1CC[C@H]2[C@@H]3CCc4cc(O)ccc4[C@H]3CC[C@]12C` [Estradiol Valerate], the nuclei count worked out at 103. The molecule `CCCCC(=O)O[C@H]1CC[C@H]2[C@@H]3CCc4cc(O)ccc4[C@H]3CC[C@]12C` [Estradiol valerate] had a nuclei count of 101. For the molecule `O=[N+]([O-])c1ccccc1S(=O)(=O)NCC1CCC(CNCC2CCc3ccccc3C2)CC1` (configuration not stated) [NTNCB hydrochloride], the nuclei count turned out to be 86.9. In the case of `N#Cc1c(O)c2c(-c3ccc(-c4ccccc4O)cc3)csc2[nH]c1=O`, the nuclei count is 105 and 91.5. The value for `COc1cccc2c1C(=O)c1c(O)c3c(c(O)c1C2=O)C[C@@](O)(C(=O)CO)C[C@@H]3O[C@H]1C[C@H](N)[C@H](O)[C@H](C)O1` [Doxorubicin hydrochloride] was 13 ± 0.18; that for `COc1cccc2c1C(=O)c1c(O)c3c(c(O)c1C2=O)C[C@@](O)(C(=O)CO)C[C@@H]3O[C@H]1C[C@H](N)[C@H](O)[C@H](C)O1` [Doxorubicin (Adriamycin)] was 12.7; that for `CCC(=O)O[C@@H](O[P@](=O)(CCCCc1ccccc1)CC(=O)N1C[C@H](C2CCCCC2)C[C@H]1C(=O)O)C(C)C` [Fosinopril sodium (Monopril)] was 103.

`CCC(=O)O[C@@H](O[P@](=O)(CCCCc1ccccc1)CC(=O)N1C[C@H](C2CCCCC2)C[C@H]1C(=O)O)C(C)C` [Fosinopril] showed a nuclei count of 113. With `CC(C)N1Cc2cc(S(C)(=O)=O)ccc2N(CCN2CC=C(c3c[nH]c4cc(F)ccc34)CC2)S1(=O)=O` the figure was 111; with `COc1cc(-c2cn(C)c(=O)c3cnccc23)c(OC)cc1CN(C)C`, 110; with `CC1(C)S[C@@H]2[C@H](NC(=O)[C@H](N)c3ccc(O)cc3)C(=O)N2[C@H]1C(=O)O` [Amoxicillin sodium (Amox)], 110. Consider `CC1(C)S[C@@H]2[C@H](NC(=O)[C@H](N)c3ccc(O)cc3)C(=O)N2[C@H]1C(=O)O` [Amoxicillin (Amoxycillin)], for which the nuclei count came to 103.

`CC1(C)S[C@@H]2[C@H](NC(=O)[C@H](N)c3ccc(O)cc3)C(=O)N2[C@H]1C(=O)O` [Amoxicillin] had a nuclei count of 100.

For the molecule `Cc1cc(C(=O)NOCCO)c(Nc2ccc(I)cc2F)n(C)c1=O`, the nuclei count was 96.7. As to `Cn1cnc2c(NCc3ccccc3)nc(NCCO)nc21` [Olomoucine], the nuclei count is 97.3. `OCCOCCN1CCN(C2=Nc3ccccc3Sc3ccccc32)CC1` [Quetiapine hemifumarate] had a nuclei count of 95. Regarding `Nc1nc(Cl)nc2c1ncn2[C@H]1C[C@H](O)[C@@H](CO)O1` [Cladribine], the nuclei count came out at 57.3. With `CN[C@@H]1[C@H](O[C@H]2[C@H](O[C@H]3[C@H](O)[C@@H](O)[C@H](N=C(N)N)[C@@H](O)[C@@H]3N=C(N)N)O[C@@H](C)[C@]2(O)C=O)O[C@@H](CO)[C@H](O)[C@H]1O` [Streptomycin sulfate] the figure was 102 ± 1.6; with `N=C(N)NC(=N)Nc1ccccc1` [1-Phenylbiguanide hydrochloride], 95.6. In turn, `NCCNC(=O)c1ccc(Cl)cn1` [Lazabemide hydrochloride] had a nuclei count of 103. `O=C([C@@H](Cc1cccc(C(F)(F)F)c1)NS(=O)(=O)c1cc(F)c2c(c1)CCNC2)N1CCCC1` yielded a nuclei count of 103. The value for `CCn1c2ccccc2c2cc(Nc3ccnc(NCCCN4CCOCC4)n3)ccc21` was 68.9; that for `O=C1[C@H](Cc2ccc(O)cc2)N2C(=O)CCN(C(=O)NCc3ccccc3)[C@H]2CN1Cc1cccc2ccccc12` was 80.8; that for `COC(=O)Nc1nc2cc(C(=O)c3ccccc3)ccc2[nH]1` [Mebendazole] was 22.

The molecule `CC1(C)S[C@@H]2[C@H](NC(=O)[C@H](NC(=O)N3CCNC3=O)c3ccccc3)C(=O)N2[C@H]1C(=O)O` [Azlocillin sodium salt] came in with a nuclei count of 102 ± 1.7. `NCCNCCNCCNCCN` [Tetraethylenepentamine pentahydrochloride] had a nuclei count of 90.1. The molecule `Nc1nc2c(ncn2[C@@H]2O[C@H](CO)[C@@H](O)[C@H]2O)c(=O)[nH]1` [Guanosine] returned a nuclei count of 117.
